# Test results published in the supplement of paper PMC9334596.
# Several values for one entry are separate records, joined by “and”; a condition that tells them apart may be missing. Equal values may be shown once. Over roughly 5,300 compounds, “PER2::LUC luminescence relative to vehicle control” has its median near 0.96; the highest 2% begin near 1.3. This is one part of the list.
# System: mPer2Luc MEF
# Assay: PER2::LUC luminescence relative to vehicle control (fold of vehicle); higher = higher PER2::LUC reporter signal
# Conditions: 10 µM
# How it was run: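 Compounds from commercial libraries were added at 10 μM to 384-well plates seeded 48 h earlier with ~3000 mPer2Luc mouse embryonic fibroblasts per well. The cells were kept in DMEM with 10% FBS at 37 °C and 5% CO2. Luminescence was read with ONE-Glo 24 h and 30 h after treatment, then an alamarBlue viability assay was run. Values are PER2::LUC luminescence relative to vehicle control, as fold change.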
Structure (SMILES),PER2::LUC luminescence (time after treatment 24 h),PER2::LUC luminescence (time after treatment 30 h)
O=C(O)c1cc(=O)[nH]c(=O)[nH]1,1.03,1
O=C([O-])CN1CCN(CC(=O)[O-])CCN([C@H](CO)[C@H](O)CO)CCN(CC(=O)[O-])CC1.[Gd+3] (racemic),1.03,1.04
O=c1n(CCCN2CCN(c3cccc(Cl)c3)CC2)nc2ccccn12,0.773,0.747
CC(=O)NCCCCCC(=O)O,0.89,1.17
CCC(=O)c1ccc2c(c1)N(CCCN(C)C)c1ccccc1S2,0.817,0.807
CSc1nc2cc(Cl)c(Oc3cccc(Cl)c3Cl)cc2[nH]1,0.808,0.856
Cc1nc2ccccn2c(=O)c1CCN1CCC(C(=O)c2ccc(F)cc2)CC1,0.574,0.838
O=C(CCNNC(=O)c1ccncc1)NCc1ccccc1,0.857,0.82
Cc1cnc(-c2ccccc2C(C)C)nc1NCc1ccc(-n2ccnn2)cc1,0.666,0.596
N/C(=N\C(=O)c1nc(Cl)c(N)nc1N)NCc1ccccc1,1.08,0.986
CCCn1c(=O)c2[nH]c(C3CCCC3)nc2n(CCC)c1=O,0.967,0.935
Cn1nnc(-c2ccc(-c3ccc(N4C[C@@H](CO)OC4=O)cc3F)cn2)n1,1.01,1.09
CCCCC[C@H](O)/C=C/[C@H]1[C@H](O)CC(=O)[C@@H]1C/C=C\CCCC(=O)O,1.09,1.07
O=C1[C@@H]2[C@H]3CC[C@H](C3)[C@@H]2C(=O)N1C[C@@H]1CCCC[C@H]1CN1CCN(c2nsc3ccccc23)CC1,0.419,0.621
O=Nc1c(O)[nH]c2c(Cl)c(Cl)ccc12,1.05,1.07
Cn1cnc2c(F)c(Nc3ccc(Br)cc3F)c(C(=O)NOCCO)cc21,0.652 and 0.518,0.54 and 0.484
C#Cc1cccc(Nc2ncnc3cc(OCCOC)c(OCCO)cc23)c1,0.945 and 0.667,0.784 and 0.637
CC[C@H](CC#N)OC(=O)N[C@@H](C)c1cccc(NC(=O)Nc2ccc(-c3cnco3)c(OC)c2)c1,0.519,0.497
CC(=O)c1ccc[nH]1,0.826,0.748
CO[C@@H]1[C@H](OC(=O)/C=C/C=C/C=C/C=C/C(=O)O)CC[C@]2(CO2)[C@H]1[C@@]1(C)O[C@@H]1CC=C(C)C,0.781,0.78
C#CCOc1ccc2c(c1)c(-c1ccc(C(C)C)cc1)nc(=O)n2C(C)C,0.714,0.726
COc1cc2nc(N3CCCC3)nc(NCCCCCN3CCCC3)c2cc1OC,0.307,0.403

Structure (SMILES),PER2::LUC luminescence (time after treatment 24 h),PER2::LUC luminescence (time after treatment 30 h)
NC(=O)c1cnccn1,0.986 and 1,0.989 and 0.965
CC(C)(C)CC(C)(C)c1cc(Cc2cc(C(C)(C)CC(C)(C)C)cc(-n3nc4ccccc4n3)c2O)c(O)c(-n2nc3ccccc3n2)c1,0.862,1.02
Nc1nc(N)c(N=O)c(OCC2CCCCC2)n1,1.08,1.14
COc1c(-c2ccc3cc(NS(C)(=O)=O)ccc3c2)cc(-n2ccc(=O)[nH]c2=O)cc1C(C)(C)C,1.06,1.08
CC(=O)O[C@H]1C(=O)[C@@]2(C)[C@H]([C@H](OC(=O)c3ccccc3)[C@]3(O)C[C@H](OC(=O)[C@H](O)[C@@H](NC(=O)c4ccccc4)c4ccccc4)C(C)=C1C3(C)C)[C@]1(OC(C)=O)CO[C@@H]1C[C@@H]2O,0.59 and 0.416,0.561 and 0.534
Cc1[nH]c(=O)c(C#N)cc1-c1ccc2nccn2c1,0.995,0.827
NC(=O)c1cccc(-c2cccc(OC(=O)NC3CCCCC3)c2)c1,1.27,1.36
O=C([O-])[C@H](O)[C@@H](O)[C@H](O)[C@H](O)CO.O=C([O-])[C@H](O)[C@@H](O)[C@H](O)[C@H](O)CO.[Ca+2],0.98,0.977
C/C=C/c1ccc(OC)cc1,0.881 and 1.03,0.883 and 1.12
C=C(C)[C@@H]1CC[C@]2(CO)CC[C@]3(C)[C@H](CC[C@@H]4[C@@]5(C)CC[C@H](O)C(C)(C)[C@@H]5CC[C@]43C)[C@@H]12,0.986,0.977
CCCN(CCC)CCc1cccc2c1CC(=O)N2,0.821,0.925
O[C@H]1[C@H](O)[C@@H](O)[C@H](O)[C@@H](O)[C@H]1O,1.14,0.974
N=C(N)c1ccc(N)cc1,0.971,1.01
COc1ccc2c(c1)CC[C@@H]1[C@@H]2CC[C@]2(C)[C@@H](O)CC[C@@H]12,1.15,1.18
CCOc1ccc(-n2c(C(C)N(Cc3cccnc3)C(=O)Cc3ccc(OC(F)(F)F)cc3)nc3ncccc3c2=O)cc1 (stereo not drawn),0.97,0.944
COC(=O)C[C@](O)(CCCC(C)(C)O)C(=O)O[C@@H]1C(OC)=C[C@]23CCCN2CCc2cc4c(cc2[C@H]13)OCO4,1.07,1
CCC1(C)OC(=O)N(C)C1=O (stereo not drawn),0.982,0.882
O=C(O)c1nc(=O)[nH]c(=O)[nH]1,0.981,1.09
NC(=O)CCCCn1ccc(NC(N)=NCC(F)(F)F)n1,0.917,1.04
O=C(OOC(=O)c1ccccc1)c1ccccc1,1.2,0.843
Nc1cc(=O)[nH]c(N)n1,1.03,0.934
N[C@@H](Cc1c[nH]c2ccccc12)C(=O)O,1.04 and 0.95,1 and 0.948

Structure (SMILES),PER2::LUC luminescence (time after treatment 24 h),PER2::LUC luminescence (time after treatment 30 h)
CCC(C)[C@H](NC(=O)[C@H](CCCN=C(N)N)NC(=O)[C@H](CCC(=O)O)NC(=O)[C@@H]1CCCN(C(=O)[C@H](CO)NC(=O)[C@@H](NC(=O)[C@@H](N)CCCN=C(N)N)C(C)CC)C1)C(=O)N[C@@H](CC(=O)O)C(=O)N[C@@H](C)C(=O)N[C@@H](CC(C)C)C(=O)O (stereo partly drawn),0.943,0.843
CC(O)Cn1cnc2c1c(=O)n(C)c(=O)n2C (stereo not drawn),1.04,1.06
COC1(C2=NCCN2)COc2ccccc2O1 (stereo not drawn),1.02,1.01
CC(C)NC[C@@H](O)COc1ccc(CC(N)=O)cc1,1.01,0.958
NS(=O)(=O)c1cc2c(cc1C(F)(F)F)NCNS2(=O)=O,0.595,0.928
OC[C@H]1O[C@@H](n2cnc3c(N[C@H]4CCC[C@@H]4O)ncnc32)[C@H](O)[C@@H]1O,0.991,0.94
COc1ccccc1N1CCN(CCCCNC(=O)c2ccc(-c3ccc(C(C)=O)cc3)cc2)CC1,0.815,0.7
NC(=O)CCCCC1CCSS1 (stereo not drawn),0.836 and 0.804,0.96 and 0.852
C=C(C)[C@H]1CC=C(C)CC1,1 and 1.16,0.975 and 0.762
C#Cc1cnc2nc(O)n(C(CC)CC)c2n1,0.979,0.944
CS(=O)(=O)OCCCCOS(C)(=O)=O,1.11,0.735
Cc1c(NC(=O)c2cccnc2)c(=O)n(-c2ccccc2)n1C,1.03 and 0.915,1.03 and 1.04
N#Cc1ccc(-c2csc(NN=C3CCCC3)n2)cc1,1.13,1.23
O=C(/C=C/c1ccc(O)cc1)c1ccc(O)cc1O,1.24,1.41
O=[N+]([O-])c1cn(CCN2CCOCC2)cn1,0.977,0.974
CN1CC[C@@H](NC(=O)Nc2ccc(C#N)cc2)C[C@@H]1c1nc2ccccc2[nH]1,0.868,0.918
Cc1ccc(C(=O)Nc2ccc(Oc3cc4cnn(C)c4cc3-c3cn[nH]c3)c(F)c2)c(=O)n1-c1ccc(F)cc1,0.701,0.628
N#CCNC(=O)c1ccc(-c2ccnc(Nc3ccc(N4CCOCC4)cc3)n2)cc1,0.18,0.271
COc1ccc(-c2coc3c(O)c(O)c(OC)cc3c2=O)cc1,1.31,1.23
OCc1c[nH]c2ccccc12,0.842,0.816
Cc1cnc(-c2cc(N3CCN(C(=O)CCS(C)(=O)=O)CC3)ncc2Cl)c(C)c1,1.29,1.07
CC(C)(CO)c1cc2cc(NC(=O)C3(c4ccc5c(c4)OC(F)(F)O5)CC3)c(F)cc2n1C[C@@H](O)CO,0.859,0.842

Structure (SMILES),PER2::LUC luminescence (time after treatment 24 h),PER2::LUC luminescence (time after treatment 30 h)
CN1C(=O)CC[C@H]1c1cccnc1,1.12 and 0.907,0.85 and 0.96
Cc1c(CN2CCN(C(=O)[C@H](C)O)CC2)sc2c(N3CCOCC3)nc(-c3cnc(N)nc3)nc12,0.329,0.328
CN1CCN(CCCCN2C(=O)CN(/N=C/c3ccc(-c4ccc(Cl)cc4)o3)C2=O)CC1,0.781,0.684
CN1CCc2c(c3ccccc3n2Cc2ccc(C(=O)NO)cc2)C1,0.91 and 0.777 and 0.742,0.939 and 0.672 and 0.684
CC[C@@H]1C(=O)OC[C@@H]1Cc1cncn1C,,0.96 and 0.912 and 0.796
COc1ccccc1Oc1c(NS(=O)(=O)c2ccc(C)cn2)nc(-c2ccncc2)nc1OC,0.901,1.02
CCn1c(=O)[nH]c2cc(Cl)c(Cl)cc21,0.951,0.812
CNc1cc(-c2cccc(Cl)c2Cl)nc(N)n1,0.923,1.05
C[C@@H](O[C@H]1OCCN(Cc2nn(P(=O)(O)O)c(=O)[nH]2)[C@H]1c1ccc(F)cc1)c1cc(C(F)(F)F)cc(C(F)(F)F)c1,0.47,0.861
CCC(C)(Oc1ccc(C2(c3ccc(OC(C)(CC)C(=O)O)cc3)CCCCC2)cc1)C(=O)O (stereo not drawn),1.34,1.06
COc1cc2nccc(Oc3ccc(NC(=O)NC4CC4)c(Cl)c3)c2cc1C(N)=O,0.795 and 0.608,0.771 and 0.637
c1nc2c(NC3CCCCC3)nc(Nc3ccc(N4CCOCC4)cc3)nc2[nH]1,0.991,0.895
CCN(CC)CC(=O)Nc1c(C)cccc1C,1.05 and 0.941 and 0.828,1.02 and 1.03 and 0.851
CC(C)c1noc(C2CCN(c3ncnc(Nc4ccc(S(C)(=O)=O)cc4F)c3[N+](=O)[O-])CC2)n1,0.972,0.789
O=C(O)[C@@H]1C[C@H](C(=O)O)N1,1.05,1.17
CC(=O)OCC(=O)[C@@]12OC(C)(C)O[C@@H]1C[C@H]1[C@@H]3C[C@H](F)C4=CC(=O)C=C[C@]4(C)[C@@]3(F)[C@@H](O)C[C@@]12C,0.854,1.05
c1ccc2c(CC3=NCCN3)cccc2c1,1.01,1.01
NC(N)=NC(=O)c1nc(Cl)c(N)nc1N,0.989,1.05
O=c1oc2c(O)c(O)cc3c(=O)oc4c(O)c(O)cc1c4c23,1.18,1.25
NC(=O)NCCC[C@H](N)C(=O)O,0.977,0.923
C[C@@H]1O[C@@H](O[C@H]2[C@H](Oc3cc(O)c4c(=O)c(O)c(-c5ccc(O)cc5)oc4c3)O[C@H](CO)[C@@H](O)[C@@H]2O)[C@H](O)[C@H](O)[C@H]1O,1.24,0.968
